In patent publication US20060088522A1, “Humanized anti-5T4 antibodies and anti-5T4/calicheamicin conjugates” (Wyeth, priority 2004, published 2006):

Molecular target: T1, human 5T4 antigen (Homo sapiens, UniProt Q13641)
T1 sequence (Q13641 32-420): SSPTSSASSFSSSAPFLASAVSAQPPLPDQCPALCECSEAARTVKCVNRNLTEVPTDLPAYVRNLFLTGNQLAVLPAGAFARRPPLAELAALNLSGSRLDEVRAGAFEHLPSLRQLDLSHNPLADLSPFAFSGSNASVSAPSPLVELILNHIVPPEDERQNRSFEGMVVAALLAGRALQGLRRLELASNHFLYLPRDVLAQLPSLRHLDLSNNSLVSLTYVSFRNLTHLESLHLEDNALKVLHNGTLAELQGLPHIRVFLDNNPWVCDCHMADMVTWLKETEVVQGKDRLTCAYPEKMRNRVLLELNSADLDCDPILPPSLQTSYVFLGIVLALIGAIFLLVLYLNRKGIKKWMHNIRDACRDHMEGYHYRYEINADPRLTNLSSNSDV
Assay: BIACORE analysis (surface plasmon resonance), 5T4 immobilized on CM5 chip
Format: binding
Description: To assess the binding specificity and affinity of chimeric and humanized H8 antibodies, BIACORE® analysis was performed using human 5T4 antigen immobilized on a CM5 chip. BIACORE® technology utilizes changes in the refractive index at the surface layer upon binding of the antibody to the 5T4 antigen immobilized on the layer. Binding is detected by surface plasmon resonance (SPR) of laser light refracting from the surface. Analysis of the signal kinetics on rate and off rate allows the discrimination between non-specific and specific interaction. The concentration of antibody used was in the range of 12.5 nM to 200 nM. Chimeric, semi-humanized, and humanized H8 antibodies performed similarly to the murine H8 antibody in the BIACORE® assay.
The binding kinetics of murine H8, humanized H8, and humanized H8 calicheamicin conjugate were compared by plasmon resonance, essentially as described in Example 2. The conjugate sample contained 61 μg CalichDMH per mg protein, 1% free antibody, and 1.4% aggregate.

B1: Humanized H8 version 2/CM: humanized H8 version 2/calicheamicin (CM) conjugate as headed in Table 10 (conjugate)
heavy: QVQLVQSGAEVKKPGASVKVSCKASGYSFTGYYMHWVRQAPGQGLEWMGRINPNNGVTLYNQKFKDRVTMTRDTSISTAYMELSRLRSDDTAVYYCARSTMITNYVMDYWGQGTLVTVSSASTKGPSVFPLAPCSRSTSESTAALGCLVKDYFPEPVTVSWNSGALTSGVHTFPAVLQSSGLYSLSSVVTVPSSSLGTKTYTCNVDHKPSNTKVDKRV[human IgG4 Fc with S228P (EU numbers) not written out]
light: DIVMTQSPDSLAVSLGERATINCKASQSVSNDVAWYQQKPGQPPKLLIYYTSSRYAGVPDRFSGSGSGTDFTLTISSLQAEDVAVYYCQQDYNSPPTFGGGTKLEIKRTVAAPSVFIFPPSDEQLKSGTASVVCLLNNFYPREAKVQWKVDNALQSGNSQESVTEQDSKDSTYSLSSTLTLSKADYEKHKVYACEVTHQGLSSPVTKSFNRGEC
- kd (Table 10, off rate): 2e-05 s⁻¹
- ka (Table 10, on rate): 120000 M⁻¹ s⁻¹

B2: Humanized H8 version 2: humanized H8 heavy chain variable region version 2 and light chain variable region version 2 (antibody)
heavy: QVQLVQSGAEVKKPGASVKVSCKASGYSFTGYYMHWVRQAPGQGLEWMGRINPNNGVTLYNQKFKDRVTMTRDTSISTAYMELSRLRSDDTAVYYCARSTMITNYVMDYWGQGTLVTVSSASTKGPSVFPLAPCSRSTSESTAALGCLVKDYFPEPVTVSWNSGALTSGVHTFPAVLQSSGLYSLSSVVTVPSSSLGTKTYTCNVDHKPSNTKVDKRV[human IgG4 Fc with S228P (EU numbers) not written out]
light: DIVMTQSPDSLAVSLGERATINCKASQSVSNDVAWYQQKPGQPPKLLIYYTSSRYAGVPDRFSGSGSGTDFTLTISSLQAEDVAVYYCQQDYNSPPTFGGGTKLEIKRTVAAPSVFIFPPSDEQLKSGTASVVCLLNNFYPREAKVQWKVDNALQSGNSQESVTEQDSKDSTYSLSSTLTLSKADYEKHKVYACEVTHQGLSSPVTKSFNRGEC
- kd (Table 8, off rate): 1.3e-05 s⁻¹
- ka (Table 8, on rate): 110000 M⁻¹ s⁻¹

B3: Humanized H8 version 3: humanized H8 heavy chain variable region version 3 and light chain variable region version 2 (antibody)
heavy: QVQLVQSGAEVKKPGASVKVSCKASGYSFTGYYMHWVRQAPGQGLEWMGRINPNNGVTLYNQKFKDRVTITRDTSTSTAYMELSSLRSEDTAVYYCARSTMITNYVMDYWGQGTLVTVSSASTKGPSVFPLAPCSRSTSESTAALGCLVKDYFPEPVTVSWNSGALTSGVHTFPAVLQSSGLYSLSSVVTVPSSSLGTKTYTCNVDHKPSNTKVDKRV[human IgG4 Fc with S228P (EU numbers) not written out]
light: DIVMTQSPDSLAVSLGERATINCKASQSVSNDVAWYQQKPGQPPKLLIYYTSSRYAGVPDRFSGSGSGTDFTLTISSLQAEDVAVYYCQQDYNSPPTFGGGTKLEIKRTVAAPSVFIFPPSDEQLKSGTASVVCLLNNFYPREAKVQWKVDNALQSGNSQESVTEQDSKDSTYSLSSTLTLSKADYEKHKVYACEVTHQGLSSPVTKSFNRGEC
- kd (Table 8, off rate): 1.9e-05 s⁻¹
- ka (Table 8, on rate): 150000 M⁻¹ s⁻¹

B4: Humanized H8 version 2/AcBut/CalichDMH: humanized H8 version 2 conjugated to calicheamicin via AcBut (conjugate)
heavy: QVQLVQSGAEVKKPGASVKVSCKASGYSFTGYYMHWVRQAPGQGLEWMGRINPNNGVTLYNQKFKDRVTMTRDTSISTAYMELSRLRSDDTAVYYCARSTMITNYVMDYWGQGTLVTVSSASTKGPSVFPLAPCSRSTSESTAALGCLVKDYFPEPVTVSWNSGALTSGVHTFPAVLQSSGLYSLSSVVTVPSSSLGTKTYTCNVDHKPSNTKVDKRV[human IgG4 Fc with S228P (EU numbers) not written out]
light: DIVMTQSPDSLAVSLGERATINCKASQSVSNDVAWYQQKPGQPPKLLIYYTSSRYAGVPDRFSGSGSGTDFTLTISSLQAEDVAVYYCQQDYNSPPTFGGGTKLEIKRTVAAPSVFIFPPSDEQLKSGTASVVCLLNNFYPREAKVQWKVDNALQSGNSQESVTEQDSKDSTYSLSSTLTLSKADYEKHKVYACEVTHQGLSSPVTKSFNRGEC
- kd (Table 10, off rate): 3.4e-05 s⁻¹
- ka (Table 10, on rate): 130000 M⁻¹ s⁻¹
